The other results are listed elsewhere or left out.
What was measured:
Assay in all cases: glycan array binding signal (z-score within array); higher = stronger binding
Conditions in all cases: glycan notation: IUPAC condensed, linker removed
[1] = target: GlcNAc(b1-2)Gal(b1-3)GalNAc
Method in brief: (§1)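 Glycan array data were curated from 3228 arrays in the Consortium for Functional Glycomics database and kept only where the protein sequence was available. Glycan names were converted to IUPAC-condensed notation, and columns mapping to the same glycan were averaged. The binding signal is a within-array Z-score, averaged across arrays of the same protein sequence at different concentrations or buffers and across linkers. Negative Z-scores can be read as non-binding.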

[2] = target: GlcNAc(b1-2)Man(a1-3)[GlcNAc(b1-2)Man(a1-6)]Man(b1-4)GlcNAc(b1-4)GlcNAc
Method in brief: as §1

[3] = target: GlcNAc(b1-2)Man(a1-3)[GlcNAc(b1-2)Man(a1-6)]Man(b1-4)GlcNAc(b1-4)[Fuc(a1-6)]GlcNAc
Method in brief: as §1

[4] = target: GlcNAc(b1-2)Man(a1-3)[GlcNAc(b1-4)][GlcNAc(b1-2)Man(a1-6)]Man(b1-4)GlcNAc(b1-4)GlcNAc
Method in brief: as §1

[5] = target: GlcNAc(b1-2)Man(a1-3)[GlcNAc(b1-4)][GlcNAc(b1-2)Man(a1-6)]Man(b1-4)GlcNAc(b1-4)[Fuc(a1-6)]GlcNAc
Method in brief: as §1

[6] = target: GlcNAc(b1-2)[GlcNAc(b1-4)]Man(a1-3)[GlcNAc(b1-2)Man(a1-6)]Man(b1-4)GlcNAc(b1-4)GlcNAc
Method in brief: as §1

[7] = target: GlcNAc(b1-2)[GlcNAc(b1-4)]Man(a1-3)[GlcNAc(b1-4)][GlcNAc(b1-2)Man(a1-6)]Man(b1-4)GlcNAc(b1-4)GlcNAc
Method in brief: as §1

[8] = target: GlcNAc(b1-2)[GlcNAc(b1-4)]Man(a1-3)[GlcNAc(b1-4)][GlcNAc(b1-2)[GlcNAc(b1-6)]Man(a1-6)]Man(b1-4)GlcNAc(b1-4)GlcNAc
Method in brief: as §1

[9] = target: GlcNAc(b1-2)[GlcNAc(b1-4)]Man(a1-3)[GlcNAc(b1-4)][GlcNAc(b1-2)[GlcNAc(b1-6)]Man(a1-6)]Man(b1-4)GlcNAc(b1-4)[Fuc(a1-6)]GlcNAc
Method in brief: as §1

[10] = target: GlcNAc(b1-2)[GlcNAc(b1-6)]Man(a1-6)[GlcNAc(b1-2)Man(a1-3)]Man(b1-4)GlcNAc(b1-4)GlcNAc
Method in brief: as §1

[11] = target: GlcNAc(b1-2)[GlcNAc(b1-6)]Man(a1-6)[GlcNAc(b1-2)Man(a1-3)]Man(b1-4)GlcNAc(b1-4)[Fuc(a1-6)]GlcNAc
Method in brief: as §1

[12] = target: GlcNAc(b1-2)[GlcNAc(b1-6)]Man(a1-6)[GlcNAc(b1-4)][GlcNAc(b1-2)Man(a1-3)]Man(b1-4)GlcNAc(b1-4)GlcNAc
Method in brief: as §1

GlcNAc(b1-3)Fuc = target: GlcNAc(b1-3)Fuc
Method in brief: as §1

GlcNAc(b1-3)Gal = target: GlcNAc(b1-3)Gal
Method in brief: as §1

[13] = target: GlcNAc(b1-3)Gal(b1-3)GalNAc
Method in brief: as §1

GlcNAc(b1-3)Gal(b1-4)Glc = target: GlcNAc(b1-3)Gal(b1-4)Glc
Method in brief: as §1

[14] = target: GlcNAc(b1-3)Gal(b1-4)GlcNAc
Method in brief: as §1

[15] = target: GlcNAc(b1-3)Gal(b1-4)GlcNAc(b1-2)Man(a1-3)[GlcNAc(b1-3)Gal(b1-4)GlcNAc(b1-2)Man(a1-6)]Man(b1-4)GlcNAc(b1-4)GlcNAc
Method in brief: as §1

[16] = target: GlcNAc(b1-3)Gal(b1-4)GlcNAc(b1-2)Man(a1-3)[GlcNAc(b1-3)Gal(b1-4)GlcNAc(b1-2)Man(a1-6)]Man(b1-4)GlcNAc(b1-4)[Fuc(a1-6)]GlcNAc
Method in brief: as §1

[17] = target: GlcNAc(b1-3)Gal(b1-4)GlcNAc(b1-2)[GlcNAc(b1-3)Gal(b1-4)GlcNAc(b1-6)]Man(a1-6)[GlcNAc(b1-3)Gal(b1-4)GlcNAc(b1-2)Man(a1-3)]Man(b1-4)GlcNAc(b1-4)GlcNAc
Method in brief: as §1

[18] = target: GlcNAc(b1-3)Gal(b1-4)GlcNAc(b1-3)Gal(b1-4)GlcNAc
Method in brief: as §1

[19] = target: GlcNAc(b1-3)Gal(b1-4)GlcNAc(b1-3)Gal(b1-4)GlcNAc(b1-2)Man(a1-3)[GlcNAc(b1-3)Gal(b1-4)GlcNAc(b1-3)Gal(b1-4)GlcNAc(b1-2)Man(a1-6)]Man(b1-4)GlcNAc(b1-4)GlcNAc
Method in brief: as §1

[20] = target: GlcNAc(b1-3)Gal(b1-4)GlcNAc(b1-3)Gal(b1-4)GlcNAc(b1-2)Man(a1-3)[GlcNAc(b1-3)Gal(b1-4)GlcNAc(b1-3)Gal(b1-4)GlcNAc(b1-2)Man(a1-6)]Man(b1-4)GlcNAc(b1-4)[Fuc(a1-6)]GlcNAc
Method in brief: as §1

[21] = target: GlcNAc(b1-3)Gal(b1-4)GlcNAc(b1-3)Gal(b1-4)GlcNAc(b1-2)[GlcNAc(b1-3)Gal(b1-4)GlcNAc(b1-3)Gal(b1-4)GlcNAc(b1-6)]Man(a1-6)[GlcNAc(b1-3)Gal(b1-4)GlcNAc(b1-3)Gal(b1-4)GlcNAc(b1-2)Man(a1-3)]Man(b1-4)GlcNAc(b1-4)[Fuc(a1-6)]GlcNAc
Method in brief: as §1

[22] = target: GlcNAc(b1-3)Gal(b1-4)GlcNAc(b1-3)Gal(b1-4)GlcNAc(b1-3)Gal(b1-4)GlcNAc(b1-2)Man(a1-3)[GlcNAc(b1-3)Gal(b1-4)GlcNAc(b1-3)Gal(b1-4)GlcNAc(b1-3)Gal(b1-4)GlcNAc(b1-2)Man(a1-6)]Man(b1-4)GlcNAc(b1-4)GlcNAc
Method in brief: as §1

[23] = target: GlcNAc(b1-3)Gal(b1-4)GlcNAc(b1-3)Gal(b1-4)GlcNAc(b1-3)Gal(b1-4)GlcNAc(b1-2)Man(a1-3)[GlcNAc(b1-3)Gal(b1-4)GlcNAc(b1-3)Gal(b1-4)GlcNAc(b1-3)Gal(b1-4)GlcNAc(b1-2)Man(a1-6)]Man(b1-4)GlcNAc(b1-4)[Fuc(a1-6)]GlcNAc
Method in brief: as §1

[24] = target: GlcNAc(b1-3)Gal(b1-4)GlcNAc(b1-3)Gal(b1-4)GlcNAc(b1-3)Gal(b1-4)GlcNAc(b1-2)[GlcNAc(b1-3)Gal(b1-4)GlcNAc(b1-3)Gal(b1-4)GlcNAc(b1-3)Gal(b1-4)GlcNAc(b1-6)]Man(a1-6)[GlcNAc(b1-3)Gal(b1-4)GlcNAc(b1-3)Gal(b1-4)GlcNAc(b1-3)Gal(b1-4)GlcNAc(b1-2)Man(a1-3)]Man(b1-4)GlcNAc(b1-4)[Fuc(a1-6)]GlcNAc
Method in brief: as §1

[25] = target: GlcNAc(b1-3)Gal(b1-4)GlcNAc(b1-3)Gal(b1-4)GlcNAc(b1-3)Gal(b1-4)GlcNAc(b1-3)Gal(b1-4)GlcNAc(b1-2)Man(a1-3)[GlcNAc(b1-3)Gal(b1-4)GlcNAc(b1-3)Gal(b1-4)GlcNAc(b1-3)Gal(b1-4)GlcNAc(b1-3)Gal(b1-4)GlcNAc(b1-2)Man(a1-6)]Man(b1-4)GlcNAc(b1-4)GlcNAc
Method in brief: as §1

[26] = target: GlcNAc(b1-3)Gal(b1-4)GlcNAc(b1-3)Gal(b1-4)GlcNAc(b1-3)Gal(b1-4)GlcNAc(b1-3)Gal(b1-4)GlcNAc(b1-2)Man(a1-3)[GlcNAc(b1-3)Gal(b1-4)GlcNAc(b1-3)Gal(b1-4)GlcNAc(b1-3)Gal(b1-4)GlcNAc(b1-3)Gal(b1-4)GlcNAc(b1-2)Man(a1-6)]Man(b1-4)GlcNAc(b1-4)[Fuc(a1-6)]GlcNAc
Method in brief: as §1

[27] = target: GlcNAc(b1-3)Gal(b1-4)GlcNAc(b1-3)Gal(b1-4)GlcNAc(b1-3)Gal(b1-4)GlcNAc(b1-3)Gal(b1-4)GlcNAc(b1-2)[GlcNAc(b1-3)Gal(b1-4)GlcNAc(b1-3)Gal(b1-4)GlcNAc(b1-3)Gal(b1-4)GlcNAc(b1-3)Gal(b1-4)GlcNAc(b1-6)]Man(a1-6)[GlcNAc(b1-3)Gal(b1-4)GlcNAc(b1-3)Gal(b1-4)GlcNAc(b1-3)Gal(b1-4)GlcNAc(b1-3)Gal(b1-4)GlcNAc(b1-2)Man(a1-3)]Man(b1-4)GlcNAc(b1-4)[Fuc(a1-6)]GlcNAc
Method in brief: as §1

[28] = target: GlcNAc(b1-3)Gal(b1-4)GlcNAc(b1-3)Gal(b1-4)GlcNAc(b1-3)GalNAc
Method in brief: as §1

[29] = target: GlcNAc(b1-3)Gal(b1-4)GlcNAc(b1-3)GalNAc
Method in brief: as §1

[30] = target: GlcNAc(b1-3)Gal(b1-4)GlcNAc(b1-3)[GlcNAc(b1-3)Gal(b1-4)GlcNAc(b1-3)]GalNAc
Method in brief: as §1

[31] = target: GlcNAc(b1-3)Gal(b1-4)GlcNAc(b1-6)[Gal(b1-3)]GalNAc
Method in brief: as §1

[32] = target: GlcNAc(b1-3)Gal(b1-4)GlcNAc(b1-6)[GlcNAc(b1-3)Gal(b1-3)]GalNAc
Method in brief: as §1

[33] = target: GlcNAc(b1-3)Gal(b1-4)GlcNAc(b1-6)[GlcNAc(b1-3)]Gal(b1-4)GlcNAc
Method in brief: as §1

GlcNAc(b1-3)GalNAc = target: GlcNAc(b1-3)GalNAc
Method in brief: as §1

GlcNAc(b1-3)Man = target: GlcNAc(b1-3)Man
Method in brief: as §1

[34] = target: GlcNAc(b1-3)[GlcNAc(b1-4)][GlcNAc(b1-6)]GlcNAc
Method in brief: as §1

[35] = target: GlcNAc(b1-3)[GlcNAc(b1-6)]Gal(b1-4)GlcNAc
Method in brief: as §1

[36] = target: GlcNAc(b1-3)[GlcNAc(b1-6)]GalNAc
Method in brief: as §1

[37] = target: GlcNAc(b1-4)Gal(b1-4)GlcNAc
Method in brief: as §1

GlcNAc(b1-4)GlcNAc = target: GlcNAc(b1-4)GlcNAc
Method in brief: as §1

[38] = target: GlcNAc(b1-4)GlcNAc(b1-4)GlcNAc
Method in brief: as §1

[39] = target: GlcNAc(b1-4)GlcNAc(b1-4)GlcNAc(b1-4)GlcNAc(b1-4)GlcNAc
Method in brief: as §1

B1: TIM1 (protein)
chain: ADGIQSVKVGGEAGPSVTLPCHYSGAVTSMCWNRGSCSLFTCQNGIVWTNGTHVTYRKDTRYKLLGDLSRRDVSLTIENTAVSDSGVYCCRVEHRGWFNDMKITVSLEIVPPHHHHHH
[1]
  glycan array binding signal (z-score): -0.135
[2]
  glycan array binding signal (z-score): -0.204
[3]
  glycan array binding signal (z-score): 0.709
[4]
  glycan array binding signal (z-score): -0.14
[5]
  glycan array binding signal (z-score): -0.281
[6]
  glycan array binding signal (z-score): -0.292
[7]
  glycan array binding signal (z-score): 0.106
[8]
  glycan array binding signal (z-score): -0.286
[9]
  glycan array binding signal (z-score): -0.295
[10]
  glycan array binding signal (z-score): -0.204
[11]
  glycan array binding signal (z-score): -0.171
[12]
  glycan array binding signal (z-score): -0.28
GlcNAc(b1-3)Fuc
  glycan array binding signal (z-score): -0.213
GlcNAc(b1-3)Gal
  glycan array binding signal (z-score): -0.191
[13]
  glycan array binding signal (z-score): -0.204
GlcNAc(b1-3)Gal(b1-4)Glc
  glycan array binding signal (z-score): -0.191
[14]
  glycan array binding signal (z-score): -0.194
[15]
  glycan array binding signal (z-score): -0.146
[16]
  glycan array binding signal (z-score): 0.069
[17]
  glycan array binding signal (z-score): 1.97
[18]
  glycan array binding signal (z-score): -0.22
[19]
  glycan array binding signal (z-score): 5.59
[20]
  glycan array binding signal (z-score): 0.702
[21]
  glycan array binding signal (z-score): 1.97
[22]
  glycan array binding signal (z-score): 0.073
[23]
  glycan array binding signal (z-score): 0.864
[24]
  glycan array binding signal (z-score): 1.02
[25]
  glycan array binding signal (z-score): 0.294
[26]
  glycan array binding signal (z-score): 0.002
[27]
  glycan array binding signal (z-score): 0.226
[28]
  glycan array binding signal (z-score): -0.123
[29]
  glycan array binding signal (z-score): -0.195
[30]
  glycan array binding signal (z-score): 0.232
[31]
  glycan array binding signal (z-score): -0.173
[32]
  glycan array binding signal (z-score): -0.149
[33]
  glycan array binding signal (z-score): -0.178
GlcNAc(b1-3)GalNAc
  glycan array binding signal (z-score): -0.222
GlcNAc(b1-3)Man
  glycan array binding signal (z-score): -0.201
[34]
  glycan array binding signal (z-score): -0.244
[35]
  glycan array binding signal (z-score): -0.191
[36]
  glycan array binding signal (z-score): -0.242
[37]
  glycan array binding signal (z-score): -0.125
GlcNAc(b1-4)GlcNAc
  glycan array binding signal (z-score): -0.138
[38]
  glycan array binding signal (z-score): -0.269
[39]
  glycan array binding signal (z-score): -0.269
